Test results taken from PubChem BioAssay (Tox21).
Values joined by “and” are separate entries in the source; they are usually repeats but may differ in a detail not shown here. Equal entries are not always repeated. The inconclusive results got no clear call from the source; some entries with a clear call stand among them for comparison. Potencies beside an inconclusive call are fits to weak or partial responses and may not hold up. Active and inactive are the calls of the source. The call rests on the fitted dose curve; in most records, active means well fitted cell-killing curve with a large enough effect in the repeat runs; inconclusive means weak or mixed curves, or effect the other way; inactive means no such curve, though single readings can be large or run the other way.

Test: qHTS assay for identifying genotoxic compounds that show differential cytotoxicity against isogenic chicken DT40 cell lines with known DNA damage response pathways - wild type cell line (AID 743012); further: nearly all actives have a fitted effect of over 60% in size
Details: DT40 wild type chicken cells viability, CellTiter-Glo, 40 h; series mostly up to 68.4 µM
Outline: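 Endpoint: CellTiter-Glo luminescence, 30 min RT. Cells: wild type DT40, 300/well. Exposure: compounds in DMSO, 40 h, 37 C/5% CO2, after ~0.5 h pre-incubation.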
Potency means the concentration at half of the fitted maximal effect; tags describe the fitted curve by direction and shape.

Structure (SMILES)	Potency
Brc1cc2ccccc2c2ccccc12	inconclusive: 4.89 µM [rising, full curve]
CCCCCCCCC(CCCCCC)C(=O)O (stereo not given)	inactive
CC(=O)OCC(=O)NCCCOc1cccc(CN2CCCCC2)c1	inconclusive: 26.6 µM [rising, partial curve, poor fit]
CCCCCC(CO)CCC (stereo not given)	inactive
Cc1cccc(C)c1OCC(C)N (stereo not given)	inconclusive: 33.5 µM [cytotoxic, partial curve, poor fit]
CC(C)=CCC/C(C)=C/CC/C(C)=C/CCC(=O)OC/C=C(\C)CCC=C(C)C	inconclusive: 33.5 µM [cytotoxic, single point]
COc1cc(C)nc(-n2nc(C)cc2OC)n1	inconclusive: 14.3 µM [cytotoxic, partial curve, poor fit]
NCCS(=O)(=O)O	inconclusive: 14.2 µM [rising, full curve]
O=c1c(O)c(-c2ccc(O)cc2O)oc2cc(O)cc(O)c12	inconclusive: 72.4 µM [cytotoxic, single point]
Cc1cccc(N(C)C(=S)Oc2ccc3c(c2)CCC3)c1	inconclusive: 33.5 µM [cytotoxic, single point]
Oc1ccc2c(c1)Cc1ccccc1-2	inconclusive: 68.6 µM [cytotoxic]
O=c1cc(-c2ccccc2)oc2ccc3ccccc3c12	inconclusive: 3.44 µM [cytotoxic, partial curve]
ClC/C=C\CCl	inactive
CCC1(CO)COCOC1	inconclusive: 68.3 µM [cytotoxic, single point]
Cc1cc2c(OCC(CNC(C)(C)C)OC(=O)c3ccccc3)cccc2[nH]1 (stereo not given)	inconclusive: 29.8 µM [cytotoxic]
CC(C)(C)c1ccc(C(=O)O)cc1	inactive
Clc1ccc(Nc2nnc(Cc3ccncc3)c3ccccc23)cc1	active: 29.8 µM and inconclusive: 33.5 µM [cytotoxic, single point]
COc1ncnc(NS(=O)(=O)c2ccc(N)cc2)c1OC	inactive
COC(=O)CS	inconclusive: 65.9 µM [cytotoxic, single point]
Nc1ncnc2c1ncn2[C@H]1CC[C@@H](CO)O1	inconclusive: 9.88 µM

Structure (SMILES)	Potency
NNCCc1ccccc1	inconclusive: 68.8 µM [cytotoxic, single point]
Oc1c(I)cc(I)c2cccnc12	inconclusive: 9.44 µM [cytotoxic, full curve]
CCCCCCOC(C)=O	inconclusive: 68.6 µM [cytotoxic, single point]
COC(=O)CC(C)CCC=C(C)C (stereo not given)	inconclusive: 68.6 µM [cytotoxic, single point]
COC(=O)CCS	inactive
COc1c(N2C[C@@H]3CCCN[C@@H]3C2)c(F)cc2c(=O)c(C(=O)O)cn(C3CC3)c12	inconclusive: 33.5 µM [cytotoxic, single point]
CN(C(=O)CN(CCO)CC(=O)N(C)C(C)(C)Cc1ccccc1)C(C)(C)Cc1ccccc1	inconclusive: 14.3 µM [cytotoxic, single point]
CN(CCOc1ccc(NS(C)(=O)=O)cc1)CCc1ccc(NS(C)(=O)=O)cc1	inconclusive: 10.6 µM [cytotoxic, full curve]
CC(=O)OC/C=C(/C)CCC=C(C)C	inactive
CCNc1nc(NC(C)CC)nc(OC)n1 (stereo not given)	inconclusive: 77 µM [cytotoxic, single point]
Nc1ccc(N=Nc2ccccc2)c(N)n1	inconclusive: 77.4 µM [cytotoxic, single point]
CCOC(=O)C1=C(C)NC(C)=C(C(=O)OC)C1c1cccc(Cl)c1Cl (stereo not given)	active: 23.7 µM
CC/C=C\C/C=C\C/C=C\CCCCCCCC(=O)O	inactive and inconclusive: 76.3 µM [cytotoxic, single point] and inconclusive: 68.6 µM [cytotoxic, single point]
C=C(C)C(=O)OCC(CC)(COC(=O)C(=C)C)COC(=O)C(=C)C	inconclusive: 43.9 µM [cytotoxic, partial curve] and inactive
CCCCCCc1ccc(O)cc1O	inconclusive: 33.5 µM [cytotoxic] and inconclusive: 77.2 µM [cytotoxic, single point]
Nc1ncnc2nc[nH]c12	inconclusive: 21.7 µM [rising, full curve, poor fit]
CCn1cc(C(=O)O)c(=O)c2cc(F)c(N3CCNC(C)C3)c(F)c21 (stereo not given)	inconclusive: 26.6 µM [cytotoxic, partial curve, poor fit]
CC(=O)[C@H]1CC[C@H]2[C@@H]3CC=C4C[C@@H](O)CC[C@]4(C)[C@H]3CC[C@]12C	inconclusive: 10.9 µM [cytotoxic, partial curve, poor fit]
C1CN(SSN2CCOCC2)CCO1	inconclusive: 67.9 µM [cytotoxic, single point]
CCCCCCCCCCCCCOS(=O)(=O)O	inactive
